# In PubChem BioAssay AID1345083 (National Center for Advancing Translational Sciences (NCATS), 2018):
# Several values for one entry are separate records, joined by “and”; a condition that tells them apart may be missing. Identical values can stand only once. About 6,200 (6.6%) of roughly 94,000 compounds were called active. This list was built around the results that the source calls inconclusive (neither active nor inactive); the mix of calls is not that of the screen. Calls come from the whole dose curve; as a rule, active = well fitted inhibition curve with a large enough effect; inconclusive = small, poorly fitted or top-dose-only effect; inactive = flat fitted curve, though single readings scatter. Where the call is inconclusive, the potency comes from a doubtful curve fit.
# Assay: Cytotoxic Profiling in HEK 293 Cell Line of Diverse Libraries Using Quantitative High-Throughput Screening; note: nearly all actives have a fitted effect of over 60% in size
# Settings: HEK 293 viability, ATP luminescence (CellTiter-Glo), 48-72 h; series mostly up to 115 µM
# Outline: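 Viability of HEK 293 cells, plated at 250 cells/well, was judged by cellular ATP after compound treatment for 48 or 72 hr. Luminescence was imaged 10 min after CellTiter-Glo addition at room temperature.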
# Potency is the fitted concentration of half-maximal effect; tags give direction and shape of the fitted curve.
row,Compound,Potency
1,COCCCn1c(=O)c(C(=O)N2CCN(C(=O)c3ccc(C)cc3)CC2)nc2cccnc21,inactive
2,COc1ccc(C(=O)N2CCc3nc(-c4ccccc4)nc(-c4ccc(Cl)cc4)c3C2)cc1,active: 22.4 µM
3,O=c1c2c(CO)c(-c3ccccc3)nn2ccn1Cc1cc(F)ccc1F,inactive
4,CCOc1ccc(C(=O)N2CCC(Cc3nc(-c4ccc(OC)cc4)no3)CC2)cc1OCC,active: 39.8 µM
5,O=C(NCc1ccccc1F)c1ccc2nc(-c3cccnc3)oc2c1,"inconclusive: 50.1 µM [inhibitor, partial curve, poor fit]"
6,Cc1ccccc1N(C)C1CN(C(=O)c2ccccc2F)C1,"inconclusive: 112 µM [inhibitor, partial curve, poor fit]"
7,COc1cccc(CN2C(=O)OC3(CCN(Cc4ccc5c(c4)CCO5)CC3)C2(C)c2cccnc2)c1 (stereo unspecified),"inconclusive: 79.4 µM [inhibitor, partial curve, poor fit]"
8,c1ccc(Cn2nc(C3CCOCC3)nc2C2CCC2)cc1,"inconclusive: 31.6 µM [inhibitor, full curve]"
9,COCCNC(=O)c1cc(-c2ccccc2Oc2ccccc2)cc2ncn(C)c12,"inconclusive: 100 µM [inhibitor, partial curve]"
10,COCCOC1CCN(C(=O)c2ccc(Cc3c(C)noc3C)o2)CC1,inactive
11,CC(C)NC(=O)N1CCCC1C(=O)N1CCC(N2CCCC2=O)CC1 (stereo unspecified),inactive
12,CC(C)c1nc2c(c(-c3ccc(Cl)cc3)n1)CCN(Cc1ccc(F)cc1)CC2,active: 39.8 µM
13,CN1CCOc2c(C(=O)NCCc3cnc[nH]3)cc(-c3ccc(N4CCOCC4)cc3)cc21,"inconclusive: 79.4 µM [inhibitor, single point]"
14,CC(=O)c1cccc(NC(=O)Cn2c(-c3cnccn3)nc(C)c(C)c2=O)c1,"inconclusive: 89.1 µM [inhibitor, single point]"
15,O=S(=O)(N1CCOCC1)N1CCCC(c2ccccc2)(c2ccccc2)C1,"inconclusive: 89.1 µM [inhibitor, single point]"
16,Cc1noc(C)c1Cn1cc2c3c(cccc31)[C@H](CC(C)C)N[C@H](C(=O)NCC1CC1)C2,"inconclusive: 100 µM [inhibitor, partial curve, poor fit]"
17,CNC(=O)[C@H]1C[C@H](Oc2ccccc2)CN1C(=O)NCc1ccc(F)cc1,"inconclusive: 22.4 µM [inhibitor, full curve, poor fit]"
18,COc1ccc(-c2c(C(=O)NCc3ccc(F)cc3)nc3sccn23)cc1,"inconclusive: 79.4 µM [inhibitor, partial curve, poor fit]"
19,COCCCNc1ncnc2c1CN(c1cccc(C)c1)C(=O)CN2C,inactive
20,COc1cccc(N2C(=O)NC(=NC3CCCCC3)C23CCN([S+](=O)([O-])c2cccc(C(F)(F)F)c2)C3)c1 (stereo unspecified),"inconclusive: 89.1 µM [inhibitor, partial curve, poor fit] and inconclusive: 56.2 µM [inhibitor, partial curve, poor fit]"
21,CC(=O)N1CCCN(c2ccc3nnc(-c4ccccc4)n3n2)CC1,"inconclusive: 112 µM [inhibitor, single point]"
22,COc1ccccc1N1CCN(C(=O)[C@H]2O[C@H](CCN3CCN(c4ccccc4)CC3)CC[C@@H]2O)CC1,"inconclusive: 44.7 µM [inhibitor, partial curve, poor fit]"

row,Compound,Potency
1,O=C(NCC1CC1)c1ccc2nc(-c3ccccn3)oc2c1,active: 112 µM
2,CC(C)[C@H]1CN(CCC(=O)O)C[C@@H]1NC(=O)CCC1CCCC1,inactive
3,O=C(Nc1cccc(C2OC(=O)N(Cc3ccccc3)C2C(=O)Nc2ccccc2)c1)c1ccco1 (stereo unspecified),"inconclusive: 35.5 µM [inhibitor, partial curve]"
4,CCc1noc(CC2CCOC3(CCN(S(=O)(=O)c4c(C)cc(C)cc4C)CC3)C2)n1 (stereo unspecified),"inconclusive: 50.1 µM [inhibitor, partial curve, poor fit]"
5,O=C(O)c1ccc(CC2CCN(C(=O)c3ccccc3Cl)C2)cc1 (stereo unspecified),inactive
6,O=C(NCCc1noc(-c2ccccc2)n1)C1NCCc2[nH]cnc21 (stereo unspecified),inactive
7,CCOc1ccccc1NC(=O)c1c(OC)cc(=O)n2c1CCCC2,inactive
8,COC[C@@H]1[C@H](C(=O)NCCc2c[nH]c3ccc(OC)cc23)CCC(=O)N1C,inactive
9,CC(C)c1nc2c(c(-c3ccc(Cl)cc3)n1)CCN(Cc1cccnc1)CC2,"inconclusive: 89.1 µM [inhibitor, single point]"
10,O=C1NC(=NC2CCCCC2)C2(CCN(Cc3cccnc3)CC2)N1c1cccnc1,inactive
11,Cc1nc2n(c1C(=O)Nc1cccc(Cl)c1C)CCC(Nc1ccc(F)cc1)C2 (stereo unspecified),active: 89.1 µM
12,O=C(c1cc2sccc2[nH]1)N1CCCn2nc(C(O)CO)cc2C1 (stereo unspecified),inactive
13,COc1ccc(CN2CC(O)CN(C(=O)c3cccc(C(F)(F)F)c3)CC2=O)cc1 (stereo unspecified),"inconclusive: 79.4 µM [inhibitor, partial curve, poor fit]"
14,CCNC(=O)[C@@H]1CCCN1[C@@H](C(=O)NC)c1ccc(OC)cc1,inactive
15,COc1ccc(NC(=O)c2cc3n(n2)CC(c2ccc4c(c2)OCO4)OC3)c(OC)c1 (stereo unspecified),"inconclusive: 50.1 µM [inhibitor, partial curve, poor fit]"
16,Cc1ccc(C(=O)N2CCN(c3cc(-c4cccs4)[nH]n3)CC2)cc1,"inconclusive: 56.2 µM [inhibitor, partial curve, poor fit]"
17,Cc1cc(C)cc(C2(CNC(=O)C3CC4(CCNCC4)CN3)CCCC2)c1 (stereo unspecified),active: 79.4 µM
18,O=C(NCc1cccc(Cl)c1)c1ccc2nnc(Cc3ccc(Cl)cc3)n2c1,active: 44.7 µM
19,O=[S+]([O-])(NC1CCN(c2ccc3nnc(-c4ccccc4)n3n2)C1)c1ccccc1 (stereo unspecified),"inconclusive: 100 µM [inhibitor, single point]"
20,O=C(CSc1ccc(Cl)cc1)N[C@H]1CCOC[C@H]1C1CCOCC1,inactive
21,CN(C(=O)c1ccc(OC2CCN(C(=O)C3CC3)CC2)cc1)C1CCCc2ccccc21 (stereo unspecified),"inconclusive: 50.1 µM [inhibitor, partial curve, poor fit]"
22,CCCN1CCc2[nH]cnc2C12CCN(Cc1ccc(C3CCCCO3)o1)CC2 (stereo unspecified),"inconclusive: 89.1 µM [inhibitor, partial curve, poor fit]"

row,Compound,Potency
1,COc1ccc(Cn2c(C3CCN(C(=O)c4cccs4)CC3)n[nH]c2=O)cc1,inactive
2,COCC(=O)NC1CCC12CCN(C(=O)CC(C)C)CC2 (stereo unspecified),inactive
3,O=C(c1cc2sccc2[nH]1)N1CC2CC(C1)[C@@H]1CCCC(=O)N1C2 (stereo partly specified),inactive
4,CN(Cc1ccc(OC(F)(F)F)cc1)C(=O)C1(c2ccc(Cl)cc2)CCOCC1,"inconclusive: 50.1 µM [inhibitor, partial curve, poor fit]"
5,O=C(C1COc2ccccc2O1)N1CCc2onc(-c3cccc(F)c3)c2C1 (stereo unspecified),inactive
6,COc1ccc(NC(=O)NC[C@H]2COCc3nc4ccccc4n32)cc1,inactive
7,COc1ccc(C(=O)N2CCC3(CC2)CC(CO)N(C(=O)c2ccccc2)C3)cn1 (stereo unspecified),"inconclusive: 89.1 µM [inhibitor, single point]"
8,Nc1nc(NCc2ccc(Cl)cc2Cl)cc(C2CC(O)C2)n1 (stereo unspecified),"inconclusive: 8.91 µM [inhibitor, full curve, poor fit]"
9,CCOc1ccccc1C(=O)N1CCC[C@H]1c1nc(-c2ccc(OC)cc2)no1,"inconclusive: 50.1 µM [inhibitor, partial curve, poor fit]"
10,Cn1ncc2c(C(=O)NCC(F)(F)F)cc(-c3cccc(F)c3)nc21,"inconclusive: 44.7 µM [inhibitor, partial curve]"
11,O=C(COc1ccc(F)cc1)N1CCCC(n2cc(-c3nc(C4CC4)no3)nn2)C1 (stereo unspecified),"inconclusive: 56.2 µM [inhibitor, partial curve, poor fit]"
12,Cc1ccc(C(=O)N2CCC3(CC2)CC(N(Cc2ccccc2)C2CC2)CCO3)cn1 (stereo unspecified),"inconclusive: 35.5 µM [inhibitor, partial curve, poor fit]"
13,COc1cccc(-c2ccc(C(=O)NCCNC(=O)Cc3ccccn3)cc2)c1,"inconclusive: 70.8 µM [inhibitor, partial curve, poor fit]"
14,CCN1CCC(CCNC(=O)CCC[C@H]2NC[C@@H]3CC2CN(Cc2ccccc2)C3)CC1,inactive
15,C[C@@H]1C(=O)O[C@H]2[C@H]1CC[C@@]1(C)Cc3sc(NS(=O)(=O)c4ccc5c(c4)CN(C(=O)C(F)(F)F)CC5)nc3[C@@H](C)[C@H]21,inactive
16,COc1ccc(-c2cn3cc(C(=O)NCCc4ccccc4F)nc3s2)cc1,inactive
17,Cc1ccccc1C(=O)N1CCC(C(=O)N2CCC3(CC2)CC(=O)Nc2ccccc2O3)CC1,"inconclusive: 56.2 µM [inhibitor, partial curve, poor fit]"
18,O=C(COc1ccccc1)N[C@H]1CO[C@H]2[C@@H]1OC[C@@H]2n1nnnc1Oc1ccc(-n2cncn2)cc1,inactive
19,NCC(=O)N1CCCC(N2CCN(c3cccc(C(F)(F)F)c3)CC2)C1 (stereo unspecified),inactive
20,COc1ccc(NC(=O)c2cc3n(n2)CC(c2ccc4c(c2)OCO4)OC3)cc1OC (stereo unspecified),"inconclusive: 44.7 µM [inhibitor, partial curve, poor fit]"
21,CCOCCN1C(=O)COC[C@@H]1[C@H](O)c1ccc(NC(=O)c2ccccc2)cc1,inactive
22,O=C(CN1C(=O)COc2ccc(C(=O)COc3ccccc3Cl)cc21)NC1CCCCC1,"inconclusive: 79.4 µM [inhibitor, partial curve, poor fit]"
